Experimental findings from US20220251173A1 are described below.

This experiment addresses hepatitis B virus surface antigen (HBsAg) (hepatitis B virus). Nature of the experiment: ELISA on commercial HBsAg plate, purified antibody, incubation and washes at pH 7.4, GAH-HRP, OD450/630. (ELISA stands for enzyme-linked immunosorbent assay.)

B1: C26 DY (antibody, human IgG1, kappa)
heavy: EVQLQESGPGLVKPSQTLSLTCAVSGSSITHGYHWNWIRQFPGNKLEWIGYIHYDGSVLYNPSLENRVTITRDTSKNQFFLKLSSVTAEDTAKYYCASGFDHWGQGTTLTVSS[no letters for human IgG1 constant region with K326D L328Y (EU numbers)]
light: DVVMTQSPLSLPVTLGEPASISCRSSQSLVHSYGDTYLHWYLQKPGQSPKLLIYKVSNRFSGVPDRFSGSGSGTDFTLKISRVETEDLGVYYCSQNTHHPYTFGGGTKLEIKRTVAAPSVFIFPPSDEQLKSGTASVVCLLNNFYPREAKVQWKVDSALQSGNSQESVTEQDSKDSTYSLSSTLTLSKADYEKHKVYACEVTHQGLSSPVTKSFNRGEC
As to B1, the half-maximal effective concentration (EC50 (read off the curve)) – broadly, the concentration that produces a half-maximal response – amounted to 0.03 µg/mL.
